# Assay results as given in the supplement of paper PMC8728848.
# The other results are listed elsewhere or left out.
# B1: Sialidase (Vibrio cholerae), P37060 (protein)
# chain: GAMALFDYNATGDTEFDSPAKQGWMQDNTNNGSGVLTNADGMPAWLVQGIGGRAQWTYSLSTNQHAQASSFGWRMTTEMKVLSGGMITNYYANGTQRVLPIISLDSSGNLVVEFEGQTGRTVLATGTAATEYHKFELVFLPGSNPSASFYFDGKLIRDNIQPTASKQNMIVWGNGSSNTDGVAAYRDIKFEIQGDALNGSMALFDYNATGDTEFDSPAKQGWMQDNTNNGSGVLTNADGMPAWLVQGIGGRAQWTYSLSTNQHAQASSFGWRMTTEMKVLSGGMITNYYANGTQRVLPIISLDSSGNLVVEFEGQTGRTVLATGTAATEYHKFELVFLPGSNPSASFYFDGKLIRDNIQPTASKQNMIVWGNGSSNTDGVAAYRDIKFEIQGDLQALGMALFDYNATGDTEFDSPAKQGWMQDNTNNGSGVLTNADGMPAWLVQGIGGRAQWTYSLSTNQHAQASSFGWRMTTEMKVLSGGMITNYYANGTQRVLPIISLDSSGNLVVEFEGQTGRTVLATGTAATEYHKFELVFLPGSNPSASFYFDGKLIRDNIQPTASKQNMIVWGNGSSNTDGVAAYRDIKFEIQGD
# Key:
# Assay in all cases: glycan array binding signal (z-score within array); higher = stronger binding
# Conditions in all cases: glycan notation: IUPAC condensed, linker removed
# Fuc(a1-2)Gal = biological target: Fuc(a1-2)Gal
# Method in brief: (§1)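 Negative Z-scores can be read as non-binding. The Z-score is calculated within each array and then averaged across arrays of one protein sequence at different concentrations or buffers and across linkers. Arrays, 3228 in all, were curated from the Consortium for Functional Glycomics database and kept only where the protein sequence was available.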
# Fuc(a1-2)Gal(b1-3)GalNAc = biological target: Fuc(a1-2)Gal(b1-3)GalNAc
# Method in brief: as §1
# [1] = biological target: Fuc(a1-2)Gal(b1-3)GalNAc(b1-3)Gal
# Method in brief: as §1
# [2] = biological target: Fuc(a1-2)Gal(b1-3)GalNAc(b1-3)Gal(a1-4)Gal(b1-4)Glc
# Method in brief: as §1
# [3] = biological target: Fuc(a1-2)Gal(b1-3)GalNAc(b1-4)[Neu5Ac(a2-3)]Gal(b1-4)Glc
# Method in brief: as §1
# Fuc(a1-2)Gal(b1-3)GlcNAc = biological target: Fuc(a1-2)Gal(b1-3)GlcNAc
# Method in brief: as §1
# [4] = biological target: Fuc(a1-2)Gal(b1-3)GlcNAc(b1-2)Man(a1-3)[Fuc(a1-2)Gal(b1-3)GlcNAc(b1-2)Man(a1-6)]Man(b1-4)GlcNAc(b1-4)GlcNAc
# Method in brief: as §1
# [5] = biological target: Fuc(a1-2)Gal(b1-3)GlcNAc(b1-3)Gal(b1-4)Glc
# Method in brief: as §1
# [6] = biological target: Fuc(a1-2)Gal(b1-3)GlcNAc(b1-3)[Gal(b1-4)[Fuc(a1-3)]GlcNAc(b1-6)]Gal(b1-4)Glc
# Method in brief: as §1
# [7] = biological target: Fuc(a1-2)Gal(b1-3)[Fuc(a1-4)]GlcNAc
# Method in brief: as §1
# [8] = biological target: Fuc(a1-2)Gal(b1-3)[Fuc(a1-4)]GlcNAc(b1-2)Man(a1-3)[Fuc(a1-2)Gal(b1-3)[Fuc(a1-4)]GlcNAc(b1-2)Man(a1-6)]Man(b1-4)GlcNAc(b1-4)GlcNAc
# Method in brief: as §1
# Fuc(a1-2)Gal(b1-4)Glc = biological target: Fuc(a1-2)Gal(b1-4)Glc
# Method in brief: as §1
# Fuc(a1-2)Gal(b1-4)Glc6S = biological target: Fuc(a1-2)Gal(b1-4)Glc6S
# Method in brief: as §1
# Fuc(a1-2)Gal(b1-4)GlcNAc = biological target: Fuc(a1-2)Gal(b1-4)GlcNAc
# Method in brief: as §1
# [9] = biological target: Fuc(a1-2)Gal(b1-4)GlcNAc(b1-2)Man(a1-3)[Fuc(a1-2)Gal(b1-4)GlcNAc(b1-2)Man(a1-6)]Man(b1-4)GlcNAc(b1-4)GlcNAc
# Method in brief: as §1
# [10] = biological target: Fuc(a1-2)Gal(b1-4)GlcNAc(b1-3)Gal(b1-4)GlcNAc
# Method in brief: as §1
# [11] = biological target: Fuc(a1-2)Gal(b1-4)GlcNAc(b1-3)Gal(b1-4)GlcNAc(b1-3)Gal(b1-4)GlcNAc
# Method in brief: as §1
# [12] = biological target: Fuc(a1-2)Gal(b1-4)GlcNAc6S
# Method in brief: as §1
# [13] = biological target: Fuc(a1-2)Gal(b1-4)[Fuc(a1-3)]GlcNAc
# Method in brief: as §1
# [14] = biological target: Fuc(a1-2)Gal(b1-4)[Fuc(a1-3)]GlcNAc(b1-2)Man(a1-3)[Fuc(a1-2)Gal(b1-4)[Fuc(a1-3)]GlcNAc(b1-2)Man(a1-6)]Man(b1-4)GlcNAc(b1-4)GlcNAc
# Method in brief: as §1
# [15] = biological target: Fuc(a1-2)Gal(b1-4)[Fuc(a1-3)]GlcNAc(b1-3)Gal(b1-4)[Fuc(a1-3)]GlcNAc
# Method in brief: as §1
# [16] = biological target: Fuc(a1-2)Gal(b1-4)[Fuc(a1-3)]GlcNAc(b1-3)Gal(b1-4)[Fuc(a1-3)]GlcNAc(b1-3)Gal(b1-4)[Fuc(a1-3)]GlcNAc
# Method in brief: as §1
# Fuc(a1-2)Gal6S(b1-4)Glc = biological target: Fuc(a1-2)Gal6S(b1-4)Glc
# Method in brief: as §1
# [17] = biological target: Fuc(a1-2)Gal6S(b1-4)Glc6S
# Method in brief: as §1
# [18] = biological target: Fuc(a1-2)Gal6S(b1-4)GlcNAc
# Method in brief: as §1
# Fuc(a1-2)[Gal(a1-3)]Gal = biological target: Fuc(a1-2)[Gal(a1-3)]Gal
# Method in brief: as §1
# [19] = biological target: Fuc(a1-2)[Gal(a1-3)]Gal(b1-3)GlcNAc
# Method in brief: as §1
# [20] = biological target: Fuc(a1-2)[Gal(a1-3)]Gal(b1-3)GlcNAc(b1-2)Man(a1-3)[Fuc(a1-2)[Gal(a1-3)]Gal(b1-3)GlcNAc(b1-2)Man(a1-6)]Man(b1-4)GlcNAc(b1-4)GlcNAc
# Method in brief: as §1
# [21] = biological target: Fuc(a1-2)[Gal(a1-3)]Gal(b1-4)Glc
# Method in brief: as §1
# [22] = biological target: Fuc(a1-2)[Gal(a1-3)]Gal(b1-4)GlcNAc
# Method in brief: as §1
binder,measurement,setting,value
B1,glycan array binding signal (z-score),Fuc(a1-2)Gal,-0.553
same,glycan array binding signal (z-score),Fuc(a1-2)Gal(b1-3)GalNAc,-0.229
same,glycan array binding signal (z-score),[1],-0.351
same,glycan array binding signal (z-score),[2],-0.283
same,glycan array binding signal (z-score),[3],0.139
same,glycan array binding signal (z-score),Fuc(a1-2)Gal(b1-3)GlcNAc,-0.596
same,glycan array binding signal (z-score),[4],0.26
same,glycan array binding signal (z-score),[5],-0.617
same,glycan array binding signal (z-score),[6],-0.38
same,glycan array binding signal (z-score),[7],-0.339
same,glycan array binding signal (z-score),[8],-0.697
same,glycan array binding signal (z-score),Fuc(a1-2)Gal(b1-4)Glc,-0.664
same,glycan array binding signal (z-score),Fuc(a1-2)Gal(b1-4)Glc6S,-0.128
same,glycan array binding signal (z-score),Fuc(a1-2)Gal(b1-4)GlcNAc,-0.237
same,glycan array binding signal (z-score),[9],-0.656
same,glycan array binding signal (z-score),[10],-0.541
same,glycan array binding signal (z-score),[11],0.415
same,glycan array binding signal (z-score),[12],-0.664
same,glycan array binding signal (z-score),[13],-0.432
same,glycan array binding signal (z-score),[14],-0.085
same,glycan array binding signal (z-score),[15],-0.651
same,glycan array binding signal (z-score),[16],-0.337
same,glycan array binding signal (z-score),Fuc(a1-2)Gal6S(b1-4)Glc,-0.252
same,glycan array binding signal (z-score),[17],1.06
same,glycan array binding signal (z-score),[18],0.313
same,glycan array binding signal (z-score),Fuc(a1-2)[Gal(a1-3)]Gal,-0.603
same,glycan array binding signal (z-score),[19],-0.518
same,glycan array binding signal (z-score),[20],-0.655
same,glycan array binding signal (z-score),[21],-0.115
same,glycan array binding signal (z-score),[22],-0.503
